# Measurements as given in PubChem BioAssay AID2101 (National Center for Advancing Translational Sciences (NCATS), 2009).
# Out of some 330,000 compounds screened, about 300 (0.091%) were called active. Roughly 4% stayed inconclusive and do not appear here. Calls come from the whole dose curve; as a rule, active = well fitted inhibition curve with a large enough effect; inconclusive = small, poorly fitted or top-dose-only effect, or effect the other way, or another doubt; inactive = no such curve, though single readings can be large or run the other way. Only a part is listed here, and it is no random draw.
# Biological target: Lysosomal acid glucosylceramidase (Homo sapiens) (UniProt P04062)
# Assay: qHTS Assay for Inhibitors and Activators of N370S glucocerebrosidase as a Potential Chaperone Treatment of Gaucher Disease;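 for activity change, negative = inhibition: 0% = full enzyme activity and -100% = no enzyme basal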
# Conditions: N370S GC spleen homogenate, 4MU-glucoside fluorescence; series mostly up to 59.4 µM; activity change, negative = inhibition: at the top concentration
# Potency is the fitted concentration of half-maximal effect.
SMILES,"activity change, negative = inhibition",Potency
O=C1C2C(c3ccccc3)=NN(c3ccccc3)C2C(=O)N1c1ccccc1 (stereo not drawn),inactive: 21.5%,–
Cc1c(O)cccc1C(=O)N[C@@H](CSc1ccccc1)[C@H](O)CN1C[C@H]2CCCC[C@H]2C[C@H]1C(=O)NC(C)(C)C,–,inactive
Cc1nc(N=Nc2ccc(S(=O)(=O)O)cc2S(=O)(=O)O)c(COP(=O)(O)O)c(C=O)c1O,–,inactive
Oc1ccc(Nc2nc3ccccc3nc2Nc2ccc(O)cc2)cc1,–,active: 4.47 µM
O=C(C1=C[C@H](c2ccc(Br)cc2)C[C@H](OCCCCO)O1)N1CCN(Cc2ccc3c(c2)OCO3)CC1,inactive: -15.4%,–
NC(N)=NCCC[C@H](NC(=O)CC1(CC(=O)N2CCN(C3c4ccccc4NC(=O)c4ccccc43)CC2)CCCC1)C(=O)NCCn1c(=O)n(-c2ccccc2)n(-c2ccccc2)c1=O (stereo partly drawn),–,active: 17.8 µM
COCOc1cc(OC)ccc1C(=O)/C=C/c1ccc2c(c1)OCO2,inactive: -8.19%,–
Cc1ccc(C2=N/C(=C/c3cccs3)C(=O)N2Nc2ccccc2)cc1,inactive: 29.6%,–
NS(=O)(=O)c1cc2c(cc1Cl)N[C@@H]([C@@H]1C[C@@H]3C=C[C@H]1C3)NS2(=O)=O,inactive: -12.5%,–
CCCCC[C@H](O)/C=C/[C@@H]1[C@@H](C/C=C\CCCC(=O)O)[C@H](O)C[C@H]1O,–,inactive
CCO[C@@H]1OC(C(=O)N2CCN(Cc3ccc4c(c3)OCO4)CC2)=C[C@H](c2ccc(C(F)(F)F)cc2)[C@H]1CCCO,inactive: -22.3%,–
CC(CN1c2ccccc2Sc2ccccc21)N(C)C (stereo not drawn),–,inactive
O[C@@H](c1cc(C(F)(F)F)nc2c(C(F)(F)F)cccc12)[C@H]1CCCCN1,inactive: -21.9%,–
O[Si](CCCN1CCCCC1)(c1ccc(F)cc1)C1CCCCC1 (stereo not drawn),inactive: -7.34%,–
c1ccc(N2CCN(CCCOc3ccc4c(c3)OCO4)CC2)cc1,inactive: 5.92%,–
N[C@H](Cc1cc(I)c(Oc2ccc(O)c(I)c2)c(I)c1)C(=O)O,inactive: -0.141% [at 21.6 µM],–
C=CCn1c(SCC(=O)NC2CCCC2)nc2scc(-c3ccco3)c2c1=O,–,active: 12.6 µM
CCC1CN(S(=O)(=O)c2ccc3c(c2)NC(=O)CC(=O)N3)c2cc(Cl)ccc2O1 (stereo not drawn),–,active: 1.58 µM
C[C@@H](NC(=O)c1cc2c([nH]c3ccccc32)c(-c2ccccc2)n1)C(=O)O,inactive: 4.41%,–
COc1ccc(-c2coc3cc(O)cc(O)c3c2=O)cc1,–,inactive
CC(C)(Cc1ccc(O)cc1)NC(=O)CC(=O)N=Nc1c(O)[nH]c2cc(Br)ccc12,–,active: 11.2 µM
CC(C)(c1cc(Br)c(O)c(Br)c1)c1cc(Br)c(O)c(Br)c1,inactive: 1.02%,–

SMILES,"activity change, negative = inhibition",Potency
COCOc1cc(OC)ccc1C(=O)/C=C\c1ccc2c(c1)OCO2,inactive: 2.68% [at 12.8 µM],–
CCc1cc(Cl)c(OC)c(C(=O)NC[C@@H]2CCCN2CC)c1O,inactive: -19% [at 21.6 µM],–
CC12CCC=CC1C(c1ccc(C(F)(F)F)cc1)N(Cc1ccccc1)C2=O (stereo not drawn),inactive: -2.41%,–
Oc1cccc(NC(=S)N=Nc2c(O)[nH]c3ccc(Br)cc23)c1,–,active: 7.94 µM
COc1cc(CNC(=O)CCCCCCC(C)C)ccc1O,–,inactive
COc1ccc(C2Sc3ccccc3N(CCN(C)C)C(=O)C2OC(C)=O)cc1 (stereo not drawn),inactive: -8.14%,–
Cc1cccc(-c2nc(Nc3ccc(N4CCOCC4)cc3)c3ccccc3n2)c1,–,active: 2.82 µM
CC(=O)Oc1ccc(C(c2ccc(OC(C)=O)cc2)c2ccccn2)cc1,–,inactive
CCO[C@@H]1OC(C(=O)N2CCN(Cc3ccc4c(c3)OCO4)CC2)=C[C@H](c2ccc(Br)cc2)[C@H]1CCCO,inactive: -18.5%,–
CC(=O)Nc1ccc(OC[C@@H](O)CNC(C)C)cc1,inactive: -1.55%,–
CN1CCN(C(=O)C2=C[C@H](c3csc4ccccc34)C[C@H](OCc3ccc(CO)cc3)O2)CC1,inactive: -26.6%,–
COC(=O)[C@@H]1C[C@@H]2CC[C@@H](O)C[C@@H]2N1Cc1ccccc1OS(=O)(=O)c1ccc(C)cc1,–,inactive
OCCN1CCN(CCC=C2c3ccccc3Sc3ccc(Cl)cc32)CC1,inactive: 4.99% [at 21.6 µM],–
CN1CCN(Cc2nc3ccccc3c(=O)n2Cc2nc(-c3ccc4ccccc4c3)cs2)CC1,–,active: 11.2 µM
COc1ccc(Nc2nc(-c3cccs3)nc3ccccc23)cc1,–,active: 1.12 µM
NC1=NC[C@H](Cc2ccc(O)cc2)N1CCc1cc(C(F)(F)F)cc(C(F)(F)F)c1,inactive: -19.9%,–
COc1ccc(C(CC(=O)N2CCCCC2)c2c(OC)cc(OC)c3ccc(=O)oc23)cc1 (stereo not drawn),inactive: 3.24%,–
O=C(Nc1ccccc1)C1=C[C@H](c2ccc(Br)cc2)C[C@H](OCc2ccc(CO)cc2)O1,inactive: 18.4%,–
O=C1C(Nc2ccccc2)=CC(=O)c2ncccc21,inactive: -13.9%,–
CC1=NN(c2ccccc2)C(=O)C1/C=C1/NC(=S)NC1=O (stereo not drawn),inactive: 2.59%,–
O=C1N=C(O)CN1/N=C/c1ccc(-c2ccc([N+](=O)[O-])cc2)o1,inactive: -2.01%,–
